Some entries share one result that the patent states for a list of compounds. For at least one compound, name, drawing or mass did not settle the structure.
Assays:
Type in all cases: cell-based
PRRSV NADC30 = test: PRRSV titration assay, NADC30; conditions: 15 μM, culture medium of infected PAMs; range over the compounds named together
PRRSV VR-2332 = test: PRRSV titration assay, VR-2332; conditions: 15 μM, culture medium of infected PAMs; range over the compounds named together
[1] = system: PRRSV strains NADC30, VR-2332 and Lelystad; test: PRRSV infection assay in PAMs, qRT-PCR for PRRSV; conditions: 15 μM, 24 h post infection, average of three viral strains
Method: PAMs were cultivated in 12-well plates and infected with PRRSV NADC30 strain or Lelystad strain at MOI=0.05 for 1 h. Cells were then incubated with 15 μM B7 analogues for 24 h at 37° C. RNAs were extracted from the PAMs for quantitative reverse transcription-PCR (qRT-PCR) using RNeasy Mini Kits (Qiagen, MD, USA) and supernatants of cells were collected PRRSV titration assay.
RNAs isolated from infected PAMs were reversely transcribed to cDNA using iScript™ cDNA Synthesis Kit (Bio-Rad Laboratories, CA, USA). Specific qRT-PCR primers for ORF7 gene of PRRSV NADC30 and Lelystad strains, and for porcine GAPDH are shown in the Table S2 qRT-PCR reaction was conducted with SYBR Green Supermix (Bimake, TX, USA) using the ABI 7500 Fast Platform (Thermo Fisher Scientific, MA, USA). GAPDH served as the house keeping gene for normalization.

Row | Compound | reduction in the viral titer, NADC30 (PRRSV NADC30) | reduction in the viral titer, VR-2332 (PRRSV VR-2332) | inhibition of viral RNA loads (qRT-PCR) [1]
1 | COc1ccc(Nc2nc3ccccc3nc2NS(=O)(=O)c2ccc(F)cc2C)cc1Cl [A3] | 1.8-2 logs | 1-2.6 logs | –
2 | Cc1ccc(S(=O)(=O)Nc2nc3ccccc3nc2Nc2cccc(S(=O)(=O)N3CCCC3)c2)cc1 [A7] | 1.8-2 logs | 1-2.6 logs | more than 85%
3 | Cc1ccccc1S(=O)(=O)Nc1nc2ccccc2nc1Nc1ccc(S(=O)(=O)N2CCOCC2)cc1 [D2] | 1.8-2 logs | 1-2.6 logs | –
4 | Cc1cccc(S(=O)(=O)Nc2nc3ccccc3nc2Nc2cccc(S(=O)(=O)N3CCCCC3)c2)c1 [E10] | 3.1-3.3 logs | 3.6-3.8 logs | more than 85%
5 | COc1ccccc1NS(=O)(=O)c1cccc(Nc2nc3ccccc3nc2NS(=O)(=O)c2ccc(F)cc2C)c1 [F9] | 3.1-3.3 logs | 3.6-3.8 logs | more than 85%
6 | Cc1cc(F)ccc1S(=O)(=O)Nc1nc2ccccc2nc1Nc1cccc(Cl)c1Cl [F12] | 3.1-3.3 logs | 3.6-3.8 logs | more than 85%
7 | O=S(=O)(Nc1nc2ccccc2nc1Nc1cccc(S(=O)(=O)N2CCCCC2)c1)c1ccccc1 [G4] | 1.8-2 logs | 1-2.6 logs | more than 85%

Reference: patent US20240342167A1, “INHIBITORS OF PORCINE REPRODUCTIVE AND RESPIRATORY SYNDROME VIRUS” (University of Connecticut, priority 2023, published 2024)
